# Measured values from paper PMC4336329 (PLoS ONE, 2015).
# About 14,000 (4.5%) of roughly 310,000 compounds showed an effect of 50% or more. Effects have a minus sign here. Some of the results follow.
# Target: human ether-à-go-go-related gene (hERG) potassium channel (human, UniProt Q12809)
# Test: primary screen, population patch clamp on CHO cells stably expressing hERG
# 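Also: peak tail current of the secondary pulse compared with the same well before compound.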
# Sequence of human ether-à-go-go-related gene (hERG) potassium channel (Q12809 whole entry, looked up): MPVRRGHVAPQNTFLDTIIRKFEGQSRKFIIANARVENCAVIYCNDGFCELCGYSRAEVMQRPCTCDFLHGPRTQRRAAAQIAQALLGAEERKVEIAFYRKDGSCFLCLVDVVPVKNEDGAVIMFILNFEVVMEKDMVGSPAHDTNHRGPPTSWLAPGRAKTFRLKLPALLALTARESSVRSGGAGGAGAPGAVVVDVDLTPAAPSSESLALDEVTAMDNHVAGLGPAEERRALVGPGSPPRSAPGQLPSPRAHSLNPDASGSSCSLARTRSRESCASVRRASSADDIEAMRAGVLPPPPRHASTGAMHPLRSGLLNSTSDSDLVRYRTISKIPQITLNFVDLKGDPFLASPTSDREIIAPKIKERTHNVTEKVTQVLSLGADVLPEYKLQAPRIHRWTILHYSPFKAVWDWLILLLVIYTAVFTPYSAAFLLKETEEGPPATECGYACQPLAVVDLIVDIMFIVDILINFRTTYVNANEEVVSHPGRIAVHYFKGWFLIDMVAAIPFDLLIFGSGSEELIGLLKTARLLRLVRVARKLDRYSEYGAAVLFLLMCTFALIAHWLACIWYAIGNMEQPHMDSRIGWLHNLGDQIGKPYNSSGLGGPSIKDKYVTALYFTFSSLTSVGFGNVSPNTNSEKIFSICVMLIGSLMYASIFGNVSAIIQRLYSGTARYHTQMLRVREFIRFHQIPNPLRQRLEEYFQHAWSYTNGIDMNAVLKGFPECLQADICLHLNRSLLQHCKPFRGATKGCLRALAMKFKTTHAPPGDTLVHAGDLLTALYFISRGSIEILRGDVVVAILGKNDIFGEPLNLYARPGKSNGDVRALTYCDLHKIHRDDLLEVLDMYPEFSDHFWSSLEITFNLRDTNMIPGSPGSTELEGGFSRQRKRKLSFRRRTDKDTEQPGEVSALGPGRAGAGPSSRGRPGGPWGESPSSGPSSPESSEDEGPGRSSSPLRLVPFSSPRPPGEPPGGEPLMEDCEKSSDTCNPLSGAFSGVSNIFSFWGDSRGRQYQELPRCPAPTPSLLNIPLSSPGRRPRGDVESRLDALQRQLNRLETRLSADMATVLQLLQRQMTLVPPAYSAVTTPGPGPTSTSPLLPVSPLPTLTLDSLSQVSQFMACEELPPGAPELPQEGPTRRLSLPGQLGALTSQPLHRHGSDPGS
row,SMILES,"hERG current change (%, negative = inhibition) at 10uM"
1,COCC(=O)Nc1cc(C(=O)OC)cc(C(=O)OC)c1,13%
2,CN(CCOc1ccccc1)CC(O)COCc1ccccc1F (centres unmarked),-39.5%
3,O=C(Nc1ccccc1-c1ccccc1)c1ccccc1,13.2%
4,Cc1c(C#N)c(N=CN(C)C)c(C(=O)c2ccc(Br)cc2)n1-c1ccccc1,-13.4%
5,CC(C)C(OC(=O)c1ccco1)C(=O)NCc1ccco1 (centres unmarked),11.5%
6,CCOC(=O)C1CCCN(C(=O)c2cn(CC)c3ccc(S(=O)(=O)N4CCCC4)cc3c2=O)C1 (centres unmarked),-8.41%
7,COCCn1nnnc1CN(CCc1ccccc1)Cc1cc2ccc(C)cc2[nH]c1=O,-57.2%
8,Cc1ccc(C(=O)NCCc2ccc(F)cc2)s1,14.6%
9,CC(c1ccccc1)n1c(Br)nc2c1c(=O)[nH]c(=O)n2C (centres unmarked),10.3%
10,CC(=O)Nc1nnc(SCC(=O)Nc2nc(C)cs2)s1,10.3%
11,N/C(=N\OC(=O)COc1ccc2ccccc2c1)c1cccnc1,-1.4%
12,CCC(=O)N1CCc2nc(-c3ccccc3)sc2C1,0.762%
13,CC(C)CN1CCC(=O)N([C@H](CO)c2ccccc2)CC1,9.33%
14,O=S(=O)(Nc1c(O)ccc2ccccc12)c1cccc2ccccc12,6.79%
15,Br.C1CN=C(NC23CC4CC(CC(C4)C2)C3)C1,0.557%
16,Cc1csc(N(C(=O)Cc2ccccc2F)c2ccccc2)n1,-6.87%
17,COc1ccc(Br)cc1/C=C/C(=O)NCC(=O)O,23.1%
18,O=C1CN=C(c2ccc(F)cc2)c2oc3ccccc3c2N1,2.47%
19,CN1CCc2ccccc2C1C1CCNCC1 (centres unmarked),13.7%
20,Cc1ccc(C(=O)NCC(=O)OCC(=O)/C=C2\N(C)c3ccccc3C2(C)C)cc1C,-18.7%
21,Cc1cc(C(=O)NC(C)CCC(C)C)c2ccccc2n1 (centres unmarked),15.9%
22,O=C(Nc1ccc(OC(F)(F)F)cc1)NC1CCC(Oc2ccc(C(=O)O)cc2)CC1 (centres unmarked),-10%
23,COc1ccc(CN2C(=O)c3ccccc3C2=O)cc1C(=O)Nc1ccc(C)cc1C,4.22%
24,Cc1ccc(-n2c(C)nn(Cc3ccc([N+](=O)[O-])cc3)c2=O)cc1,-7.12%
25,CC1CC(C)CN(C(=O)c2cc3ccccc3o2)C1 (centres unmarked),-2.2%
26,O=C(c1cc(-c2ccccc2)on1)N1CCc2ccccc2C1,24.4%
